# Results: the supplement of paper PMC8728848
# The other results are listed elsewhere or left out.
# B1: PkBDPgamma (Plasmodium knowlesi) (protein)
# chain: SAINQIFLQNNVMDKCNDKRKRGERDWDCPTEKDVCIPDRRYQLCMMEITNLVDTDTHFHSDIIFRKSYSRRRLIYDVGGRGDLLLKKYNNVYSEDLCKDIKWSLQDFGDIIMGTDMEGIGYSLVVQNNLRSIFGTGTSAELDRKKWWNDHKKDIWKAMILSVKEKNRYSAWNCKEDVQIKVEPQIYRWIREWGRDYMSEFREQRRKLNEKCEDKLYYSTMLICTLPPCNNACKSYDEWITGKKKQWDVLSTKFSSVKKAQKIETENIARAYDILKQELNGFNEVTFENEINKRDKLYNYFCVCIVQEARKNTQENVKNVGSGVESKAPSSNPINEAVKSSSGEGKVQEDSAHRSVNEGEGKSSTNEADPGSQPGAAASGGGSGGGTGGGVDLAPQMLRELQETNAALQDVRELLRQQVKEITFLKNTVMECDACGGPLDRNLPPLAPLGPTGGWSHPQFEK
# Tests used:
# Experiment in all cases: glycan array binding signal (z-score within array); higher = stronger binding
# Conditions in all cases: glycan notation: IUPAC condensed, linker removed
# [1] = target: Neu5Ac(a2-3)Gal(b1-4)GlcNAc(b1-3)[Neu5Ac(a2-3)Gal(b1-4)GlcNAc(b1-6)]GalNAc
# In short: (§1)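 Glycan array data were curated from 3228 arrays in the Consortium for Functional Glycomics database and kept only where the protein sequence was available. Glycan names were converted to IUPAC-condensed notation, and columns mapping to the same glycan were averaged. The binding signal is a within-array Z-score, averaged across arrays of the same protein sequence at different concentrations or buffers and across linkers. Negative Z-scores can be read as non-binding.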
# [2] = target: Neu5Ac(a2-3)Gal(b1-4)GlcNAc(b1-6)GalNAc
# In short: as §1
# [3] = target: Neu5Ac(a2-3)Gal(b1-4)GlcNAc(b1-6)[Gal(b1-3)]GalNAc
# In short: as §1
# [4] = target: Neu5Ac(a2-3)Gal(b1-4)GlcNAc(b1-6)[Neu5Ac(a2-3)Gal(b1-3)]GalNAc
# In short: as §1
# [5] = target: Neu5Ac(a2-3)Gal(b1-4)GlcNAc6S
# In short: as §1
# [6] = target: Neu5Ac(a2-3)Gal(b1-4)[Fuc(a1-3)]GlcNAc
# In short: as §1
# [7] = target: Neu5Ac(a2-3)Gal(b1-4)[Fuc(a1-3)]GlcNAc(b1-2)Man
# In short: as §1
# [8] = target: Neu5Ac(a2-3)Gal(b1-4)[Fuc(a1-3)]GlcNAc(b1-3)Gal
# In short: as §1
# [9] = target: Neu5Ac(a2-3)Gal(b1-4)[Fuc(a1-3)]GlcNAc(b1-3)Gal(b1-4)GlcNAc
# In short: as §1
# [10] = target: Neu5Ac(a2-3)Gal(b1-4)[Fuc(a1-3)]GlcNAc(b1-3)Gal(b1-4)[Fuc(a1-3)]GlcNAc(b1-3)Gal(b1-4)[Fuc(a1-3)]GlcNAc
# In short: as §1
# [11] = target: Neu5Ac(a2-3)Gal(b1-4)[Fuc(a1-3)]GlcNAc(b1-3)GalNAc
# In short: as §1
# [12] = target: Neu5Ac(a2-3)Gal(b1-4)[Fuc(a1-3)]GlcNAc(b1-6)[Gal(b1-3)]GalNAc
# In short: as §1
# [13] = target: Neu5Ac(a2-3)Gal(b1-4)[Fuc(a1-3)]GlcNAc(b1-6)[Neu5Ac(a2-3)Gal(b1-3)]GalNAc
# In short: as §1
# [14] = target: Neu5Ac(a2-3)Gal(b1-4)[Fuc(a1-3)]GlcNAc6S
# In short: as §1
# [15] = target: Neu5Ac(a2-3)Gal6S(b1-4)GlcNAc
# In short: as §1
# [16] = target: Neu5Ac(a2-3)Gal6S(b1-4)[Fuc(a1-3)]GlcNAc
# In short: as §1
# Neu5Ac(a2-3)GalNAc = target: Neu5Ac(a2-3)GalNAc
# In short: as §1
# [17] = target: Neu5Ac(a2-3)GalNAc(b1-4)GlcNAc
# In short: as §1
# [18] = target: Neu5Ac(a2-3)[GalNAc(b1-4)]Gal(b1-4)Glc
# In short: as §1
# [19] = target: Neu5Ac(a2-3)[GalNAc(b1-4)]Gal(b1-4)GlcNAc
# In short: as §1
# [20] = target: Neu5Ac(a2-3)[GalNAc(b1-4)]Gal(b1-4)GlcNAc(b1-3)GalNAc
# In short: as §1
# [21] = target: Neu5Ac(a2-3)[Neu5Ac(a2-6)]GalNAc
# In short: as §1
# Neu5Ac(a2-6)Gal = target: Neu5Ac(a2-6)Gal
# In short: as §1
# [22] = target: Neu5Ac(a2-6)Gal(b1-3)GlcNAc(b1-3)[Gal(b1-4)GlcNAc(b1-6)]Gal(b1-4)Glc
# In short: as §1
# Neu5Ac(a2-6)Gal(b1-4)Glc = target: Neu5Ac(a2-6)Gal(b1-4)Glc
# In short: as §1
# [23] = target: Neu5Ac(a2-6)Gal(b1-4)GlcNAc
# In short: as §1
# [24] = target: Neu5Ac(a2-6)Gal(b1-4)GlcNAc(b1-2)Man
# In short: as §1
# [25] = target: Neu5Ac(a2-6)Gal(b1-4)GlcNAc(b1-2)Man(a1-3)Man(b1-4)GlcNAc(b1-4)GlcNAc
# In short: as §1
# [26] = target: Neu5Ac(a2-6)Gal(b1-4)GlcNAc(b1-2)Man(a1-3)[Gal(b1-4)GlcNAc(b1-2)Man(a1-6)]Man(b1-4)GlcNAc(b1-4)GlcNAc
# In short: as §1
# [27] = target: Neu5Ac(a2-6)Gal(b1-4)GlcNAc(b1-2)Man(a1-3)[GlcNAc(b1-2)Man(a1-6)]Man(b1-4)GlcNAc(b1-4)GlcNAc
# In short: as §1
# [28] = target: Neu5Ac(a2-6)Gal(b1-4)GlcNAc(b1-2)Man(a1-3)[GlcNAc(b1-4)][Neu5Ac(a2-6)Gal(b1-4)GlcNAc(b1-2)Man(a1-6)]Man(b1-4)GlcNAc(b1-4)GlcNAc
# In short: as §1
binder,measurement,setting,value
B1,glycan array binding signal (z-score),[1],0.103
same,glycan array binding signal (z-score),[2],-0.303
same,glycan array binding signal (z-score),[3],-0.158
same,glycan array binding signal (z-score),[4],-0.347
same,glycan array binding signal (z-score),[5],-0.024
same,glycan array binding signal (z-score),[6],-0.359
same,glycan array binding signal (z-score),[7],-0.529
same,glycan array binding signal (z-score),[8],-0.145
same,glycan array binding signal (z-score),[9],0.574
same,glycan array binding signal (z-score),[10],0.422
same,glycan array binding signal (z-score),[11],0.755
same,glycan array binding signal (z-score),[12],0.362
same,glycan array binding signal (z-score),[13],0.233
same,glycan array binding signal (z-score),[14],0.082
same,glycan array binding signal (z-score),[15],-0.294
same,glycan array binding signal (z-score),[16],-0.468
same,glycan array binding signal (z-score),Neu5Ac(a2-3)GalNAc,-0.119
same,glycan array binding signal (z-score),[17],-0.217
same,glycan array binding signal (z-score),[18],-0.386
same,glycan array binding signal (z-score),[19],-0.169
same,glycan array binding signal (z-score),[20],-0.323
same,glycan array binding signal (z-score),[21],-0.392
same,glycan array binding signal (z-score),Neu5Ac(a2-6)Gal,-0.307
same,glycan array binding signal (z-score),[22],-0.324
same,glycan array binding signal (z-score),Neu5Ac(a2-6)Gal(b1-4)Glc,-0.286
same,glycan array binding signal (z-score),[23],-0.428
same,glycan array binding signal (z-score),[24],0.007
same,glycan array binding signal (z-score),[25],-0.257
same,glycan array binding signal (z-score),[26],-0.11
same,glycan array binding signal (z-score),[27],-1.14
same,glycan array binding signal (z-score),[28],-0.042
